# Reference: publication PMC4336329 (PLoS ONE, 2015)
# Screen size: about 310,000 compounds; about 14,000 (4.5%) showed an effect of 50% or more. The effect is printed as a negative number. This is one part of the list.
# Target: human ether-à-go-go-related gene (hERG) potassium channel (human, UniProt Q12809)
# Test: primary screen, population patch clamp on CHO cells stably expressing hERG
# 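Note: peak tail current of the secondary pulse compared with the same well before compound.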
# Chain of human ether-à-go-go-related gene (hERG) potassium channel (Q12809 whole entry, looked up): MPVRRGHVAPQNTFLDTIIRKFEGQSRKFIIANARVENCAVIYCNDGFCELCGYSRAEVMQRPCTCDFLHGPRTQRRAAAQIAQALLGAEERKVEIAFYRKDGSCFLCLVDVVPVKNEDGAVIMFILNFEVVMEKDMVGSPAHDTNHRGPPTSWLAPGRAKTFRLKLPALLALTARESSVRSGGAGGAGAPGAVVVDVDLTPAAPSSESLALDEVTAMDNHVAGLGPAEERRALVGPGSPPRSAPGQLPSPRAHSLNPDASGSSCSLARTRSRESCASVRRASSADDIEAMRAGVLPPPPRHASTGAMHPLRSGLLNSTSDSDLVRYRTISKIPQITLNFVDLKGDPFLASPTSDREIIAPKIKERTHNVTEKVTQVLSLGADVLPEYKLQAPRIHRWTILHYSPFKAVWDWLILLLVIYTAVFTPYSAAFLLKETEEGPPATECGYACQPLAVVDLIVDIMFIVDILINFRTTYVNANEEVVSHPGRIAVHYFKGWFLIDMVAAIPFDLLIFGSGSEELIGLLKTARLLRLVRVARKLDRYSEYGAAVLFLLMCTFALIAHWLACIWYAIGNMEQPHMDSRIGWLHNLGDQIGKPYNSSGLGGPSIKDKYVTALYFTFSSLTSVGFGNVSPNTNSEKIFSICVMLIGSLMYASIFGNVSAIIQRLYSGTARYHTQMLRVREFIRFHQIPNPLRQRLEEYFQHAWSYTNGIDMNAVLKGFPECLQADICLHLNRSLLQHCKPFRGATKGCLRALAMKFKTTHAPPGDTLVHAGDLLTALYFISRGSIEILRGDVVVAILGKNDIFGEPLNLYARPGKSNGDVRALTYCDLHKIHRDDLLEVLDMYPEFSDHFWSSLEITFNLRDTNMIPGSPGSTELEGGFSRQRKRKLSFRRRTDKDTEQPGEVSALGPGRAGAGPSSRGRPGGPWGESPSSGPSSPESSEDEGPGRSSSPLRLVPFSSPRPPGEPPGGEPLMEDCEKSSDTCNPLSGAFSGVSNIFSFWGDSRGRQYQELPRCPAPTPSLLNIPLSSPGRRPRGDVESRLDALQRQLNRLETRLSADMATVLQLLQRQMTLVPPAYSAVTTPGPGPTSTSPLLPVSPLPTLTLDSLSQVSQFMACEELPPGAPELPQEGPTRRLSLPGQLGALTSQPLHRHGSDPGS
row,SMILES,"hERG current change (%, negative = inhibition) at 10uM [%]"
1,Cc1ccsc1C1C=C(c2cccc(Br)c2)Nc2ncnn21 (centres unmarked),-16.2
2,Cc1cc(C)cc(N(C(=O)c2csnn2)C(C(=O)NC(C)(C)C)c2ccncc2)c1 (centres unmarked),-2.36
3,COc1ccc(N(CC(=O)Nc2ccccc2C(N)=O)S(=O)(=O)c2ccc(C)c([N+](=O)[O-])c2)cc1,-20.4
4,COc1ccc(C(=O)NCC(=O)N/N=C/c2c(C)[nH]c3ccccc23)cc1,14.7
5,CC(C)(C)Nc1nc(Cl)nc(NC2CCCCC2)n1,-3.85
6,COC(=O)c1ccc(C(=O)OC)c(NC(=O)CSCc2ccc(Br)cc2)c1,12.2
7,CCOC(=O)N1CCN(CC(=O)Nc2cccc(Br)c2)CC1,-18.9
8,CC/C(=N\NC(=O)CNC(=O)/C=C/c1ccc(OC)cc1)c1ccccc1,10.5
9,COc1cccc(/C=C/C(=O)OCC(=O)N(C)CC(=O)Nc2ccccc2Cl)c1OC,-4.44
10,O=C(N/N=C/c1ccccc1)c1ccco1,10.1
11,CN(Cc1ccon1)C(=O)CC1C(=O)NCCN1Cc1ccc(Cl)c(F)c1 (centres unmarked),-8.07
12,Cc1c(-c2ccccc2)n[nH]c1C(=O)NN,0.0356
13,Cc1cc2c(C)cc(=O)oc2c2c1NCCC2,-9.52
14,COc1cccc(/C=N/NC(=O)C(=O)N2CCCC2)c1,-2.09
15,COc1cc(/C=N/NC(=S)Nc2cccc(Cl)c2C)ccc1OCC(=O)N1CC(C)OC(C)C1 (centres unmarked),-36
16,COc1ccc(-c2oc3cc(O)c(OC)c(O)c3c(=O)c2OC)cc1,-1.29
17,Cc1cc(N2CCOCC2)c2c(N)c(C)cc(C)c2n1,-24.6
18,CC1(c2ccccc2)NC(=O)N(CC(=O)Nc2nnc(C3CC3)s2)C1=O (centres unmarked),12.1
19,Cc1occc1C(=O)Nc1ccc(S(N)(=O)=O)cc1,29.3

row,SMILES,"hERG current change (%, negative = inhibition) at 10uM [%]"
1,CCN(CC)S(=O)(=O)c1cc(C(=O)NC2CCCCC2)ccc1C,-45.3
2,Cc1ccc(-c2noc(CN(C(=O)CCN3C(=O)c4ccccc4C3=O)C(C)C)n2)cc1,-63.6
3,CCOc1cc(/C=C2/NC(=O)NC2=O)cc([N+](=O)[O-])c1O,15.3
4,CCn1c(SCC(=O)Nc2nc(-c3ccc(C)cc3)cs2)nnc1-c1ccccc1O,5.72
5,NC(=O)CC(NC(=O)Cc1ccc(Cl)cc1)c1ccc(NCCCN2CCCC2=O)c([N+](=O)[O-])c1 (centres unmarked),3.1
6,Cc1ccc(/C=C/C(=O)NCc2ccccn2)o1,-26.4
7,COC(=O)c1ccc(Cn2cnc3c(sc4nc(N5CCOCC5)c5c(c43)CCCC5)c2=O)o1,3.43
8,O=C1c2ccccc2-c2nccnc21,2.35
9,Cc1cc(C)c(C#N)c(SC2CCCCC2=O)n1 (centres unmarked),5.19
10,CC(Sc1nnc(C2CC2)n1C1CC1)C(=O)Nc1ccc(C(N)=O)cc1 (centres unmarked),-21.4
11,NC(=O)c1nn(-c2cccc(Cl)c2)c(=O)cc1O,2.23
12,COC(=O)C1=C(C)Nc2c(c(=O)n(C)c(=O)n2C)C1c1cccs1 (centres unmarked),6.87
13,O=C(CN1CC(=O)Oc2ccccc21)OCC(=O)c1ccc(F)cc1,10.2
14,COc1cccc(C2CC(c3ccccc3Cl)Nc3nc(N)nn32)c1 (centres unmarked),-13.6
15,COc1ccc(N(C(=O)/C=C/c2ccccc2)C2=CC3CCC(C2)N3C)cc1.Cl (centres unmarked),-74.6
16,CCNC(=O)CCSc1nc2cc(Cl)ccc2o1,6.15
17,COc1ccc(C2=NN(C(=O)CSc3nnnn3C)C(c3ccco3)C2)cc1 (centres unmarked),3.05
18,COc1ccc(-c2c(NC(=O)c3ccco3)n(-c3ccccc3)nc(C)c2=O)cc1,11
19,O=C(COC(=O)c1ccccc1)NCc1ccco1,15.8

row,SMILES,"hERG current change (%, negative = inhibition) at 10uM [%]"
1,Cc1ccc(CNC(=O)C(Cc2ccccc2)NS(=O)(=O)c2ccc(Br)s2)cc1 (centres unmarked),0.563
2,Cc1ccn2c(C(=O)NN=C3CCN(C)CC3)c(C)nc2c1,17.3
3,COc1ccccc1-c1cc(SC)c(C#N)c(=O)o1,8.85
4,Cc1c(OCC(=O)NC2CC(C)(C)NC(C)(C)C2)ccc2c1oc(=O)c1ccccc12,-19.4
5,C/C(=N/NC(=O)c1ccc2c(c1)OCO2)c1cccc([N+](=O)[O-])c1,-10.1
6,CC(C)OCCCNC(=O)CN1C(=O)COc2ccc(S(=O)(=O)N3CCCCCC3)cc21,4.01
7,Cc1ccccc1CS(=O)(=O)CC(O)CN1CCCC1=O (centres unmarked),12.1
8,CC(C)c1ccc2oc(=O)cc(CN3CCOCC3)c2c1,17.1
9,CCOc1ccccc1NC(=O)CSc1nnc(CNC(=O)COc2ccc(Cl)cc2)o1,-11.9
10,Cc1ccc(S(=O)(=O)N(C)C)cc1NC(=O)COC(=O)CNC(=O)c1cccs1,14.5
11,COc1cc2[nH]c(=S)nc(NCc3ccc(Cl)cc3)c2cc1OC,-3.55
12,O=C(NCCC1=CCCCC1)c1ccc(CN2CCOCC2)cc1,-3.02
13,COc1ccc(C(=O)/C=C/Nc2ccc(S(=O)(=O)Nc3nc(C)cc(C)n3)cc2)cc1OC,0.839
14,O=C(c1cccnc1)N1CCN(Cc2ccc3c(c2)OCO3)CC1,-14
15,CCCn1nnc(NC(=S)NC(=O)c2ccc(-c3ccc(Br)cc3)o2)n1,6.47
16,CC1C(=O)OC(c2ccc(Br)cc2)C(C)(C)C1=O (centres unmarked),10.3
17,COc1ccc(C(=O)NCCC2=CCCCC2)cc1[N+](=O)[O-],-25.8
18,O=C(c1cc(-c2ccncc2)nc2ccccc12)N1CCN(c2ccccn2)CC1,-63.5
